According to PubChem BioAssay AID504832 (National Center for Advancing Translational Sciences (NCATS), 2011):
Among all 310,000 compounds or so, about 18,000 (5.8%) were called active. Inconclusive results, whose numbers are uncertain, are shown with a selection of clear calls. Calls follow the shape of the dose curve; as a rule, active = well fitted inhibition curve with a large enough effect; inconclusive = small, poorly fitted or top-dose-only effect, or another doubt; inactive = no such curve, though single readings can be large or run the other way. No potency is given beside an inconclusive call; the fits are too rough.

Assay: Primary qHTS for delayed death inhibitors of the malarial parasite plastid, 48 hour incubation
Conditions: P. falciparum luciferase growth in erythrocytes; series mostly up to 28.7 µM; activity change, negative = inhibition: at the top concentration
In short: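 Luminescence readout; reporter = integrated firefly luciferase in P. falciparum. RBC culture at 2% hematocrit, 0.1% parasitemia final, 37 C/5% CO2; decreased signal taken as growth inhibition.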
% is scaled to controls: 0 for no effect and ±100 for the full control effect; potency is read from the fitted curve at half-maximal effect; tags tell the direction and shape of the fitted curve.

SMILES	activity change, negative = inhibition	Potency
O=C(NCCS(=O)(=O)NCc1ccc2c(c1)OCO2)c1ccccc1	inactive: -4.61%	
Cc1oc2ccc(OCc3ccc(Br)cc3)cc2c1C(=O)O	inactive: 2.57%	
COc1ccc(C(=O)Nc2ccc3c(c2)nc2n3CCSC2)cc1		inconclusive [inhibitor, single point]
COc1ccc(NC(=O)c2cccnc2NCCc2ccccc2)cc1		inconclusive [inhibitor, partial curve, poor fit]
N#Cc1nc(Cc2ccccc2)oc1NCCCn1ccnc1		inconclusive [inhibitor, full curve, poor fit]
CC(C)CCn1c(Sc2nc3ccccc3s2)nc2c1c(=O)[nH]c(=O)n2C		inconclusive [inhibitor, single point]
CC(C)(C)OC(=O)CNC(=O)c1[nH]cnc1C(=O)N[C@@H](Cc1ccccc1)C(=O)OC(C)(C)C		inconclusive [inhibitor, single point]
CCc1cccc(C)c1NC(=O)CN(C)S(=O)(=O)c1ccc(-c2ccc(=O)[nH]n2)s1		inconclusive [inhibitor, partial curve]
Cc1cc(=O)oc2cc(Oc3ncccc3[N+](=O)[O-])ccc12		inconclusive [inhibitor, single point]
COc1ccc(C(=O)NCCc2c[nH]c3ccccc23)cc1S(=O)(=O)N1CCCCC1C (configuration not stated)		active: 8.28 µM
Cc1ccc(O)c(C=Nc2cc(C)ccc2O)c1		inconclusive [inhibitor, partial curve, poor fit]
CC(C)(C)c1ccc(C(=O)CS(=O)(=O)c2ccccc2)cc1	inactive: 349%	
COc1ccc([N+](=O)[O-])cc1NC1CCN(C(=O)c2cccs2)CC1		inconclusive [inhibitor, full curve, poor fit]
N#CC1(NC(=O)CN2C(=O)c3ccccc3C2=O)CCCCC1	inactive: 0%	
COc1ccc(/C=N/NC(=O)c2cccc(C(=O)N/N=C/c3ccc(OC)cc3)n2)cc1	inactive: 2.13%	
NS(=O)(=O)c1ccc(CCNCc2cc(Br)ccc2OCc2ccccc2F)cc1		inconclusive [inhibitor, single point]
Cc1sc(NC(=O)c2ccc3ncsc3c2)c(C(N)=O)c1C	inactive: 112%	
CCn1c(C)nc([N+](=O)[O-])c1Sc1ccc(F)cc1		inconclusive [inhibitor, partial curve, poor fit]
O=S(=O)(c1ccc2oc3ccc(S(=O)(=O)N4CCCCC4)cc3c2c1)N1CCCCC1		inconclusive [inhibitor, full curve, poor fit]
Cc1ccc(C)c(N2CCN(C(=O)C3CCCN(c4ncnc5c4nc4n5CCCCC4)C3)CC2)c1 (configuration not stated)		active: 9.28 µM
CCOP(=O)(OCC)Oc1cc(C)c(N(C)C)c(C)c1		inconclusive [inhibitor, single point]
CCCc1nc(SCC(=O)N2CCCC2)c2ccccc2n1	inactive: -16.9%	
O=C(CCn1nnc(-c2cccs2)n1)NCc1ccccc1Cl	inactive: -1.92%	

SMILES	activity change, negative = inhibition	Potency
CCOc1cccc(N(C(=O)c2ccco2)C(C(=O)NC2CCCC2)c2cccnc2)c1 (configuration not stated)		inconclusive [inhibitor, single point]
COCC(=O)Nc1c(C(=O)Nc2ccc3c(c2)OCO3)oc2ccccc12	inactive: 45.2%	
C#CCOCCOCCOCCNc1nc(N2CCN(C(=O)[C@H](CCC(=O)O)n3cc(C(N)[C@H](C)CC)nn3)CC2)nc(N2CCN(C(=O)[C@H](CCC(=O)O)n3cc(C(N)[C@H](C)CC)nn3)CC2)n1 (some centres not stated)		inconclusive [inhibitor, single point]
CCc1cc(-c2[nH]ncc2-c2ccc([N+](=O)[O-])cc2)c(O)cc1OC		active: 4.65 µM
C1CNC2NCCNC2N1 (configuration not stated)	inactive: 2.35%	
C=CCNc1nnc(Cl)c2ccccc12	inactive: -0.0634%	
O=c1c(-c2nnc(SCc3ccc(Cl)cc3)o2)cccn1Cc1ccccc1		inconclusive [inhibitor, partial curve, poor fit]
O=C(C1CCCN(S(=O)(=O)c2cc(Cl)ccc2Cl)C1)N1CCCCCC1 (configuration not stated)		inconclusive [inhibitor, single point]
Cc1ccc2c(c1)C1CC(C)(O2)N(c2cccc(C(=O)NC3CCN(Cc4ccccc4)CC3)c2)C(=O)N1 (configuration not stated)		inconclusive [inhibitor, single point]
CCN(CC)C(=S)SCC(=O)c1ccc(F)cc1	inactive: 162%	
CCC1OC(=O)C(C)C(OC2C[C@@](C)(OC)C(O)C(C)O2)C(C)C(O[C@@H]2OC(C)CC(N(C)C)C2O)[C@](C)(O)CC(C)C(=NOCOCCOC)C(C)C(O)[C@]1(C)O (some centres not stated)		inconclusive [inhibitor, partial curve, poor fit]
N=c1c2c(ncn1CCN1CCOCC1)Oc1cc(O)ccc1C2c1ccccc1 (configuration not stated)		inconclusive [inhibitor, partial curve, poor fit]
CC(C)(C)NCc1ccccc1OCc1cccs1		inconclusive [inhibitor, full curve, poor fit]
COc1ccc(NC(=O)Cn2c(=O)n(CC(=O)NCc3ccco3)c(=O)c3ccccc32)cc1OC		inconclusive [inhibitor, partial curve, poor fit]
NC(=O)[C@H]1CC2(CC(c3cccc(NC(=O)COc4ccc(Cl)cc4)c3)=NO2)CN1C(=O)CC(c1ccccc1)c1ccccc1 (some centres not stated)		inconclusive [inhibitor, partial curve, poor fit]
CCOc1nc(N2CCCCC2)nc(-n2cc(-c3ccccc3)nn2)n1	inactive: -16%	
CC1CCCN(c2nc3c(c(=O)[nH]c(=O)n3C)n2Cc2ccccc2Cl)C1 (configuration not stated)		inconclusive [inhibitor, single point]
O=C1CCCC2=C1C(c1cccs1)n1nc(SCc3ccccc3F)nc1N2 (configuration not stated)		inconclusive [inhibitor, single point]
COc1ccc(-n2c(C)cc(C3=NNC(=NC4CC4)SC3)c2C)cc1		inconclusive [inhibitor, single point]
Cc1ccc(NS(=O)(=O)c2ccc(C(=O)N3CC(C)OC(C)C3)cc2)cc1 (configuration not stated)		inconclusive [inhibitor, partial curve]
NC(=S)Nc1cccc(-c2n[nH]c(=S)o2)c1	inactive: 0.864%	
CCCn1c(O)c(N=NC(=O)c2cccnc2)c2cc(Br)ccc21		active: 5.86 µM
Nc1cc[n+](CC(=O)Nc2ccccc2)cc1		inconclusive [inhibitor, single point]

SMILES	activity change, negative = inhibition	Potency
Cc1ccc(NC(=S)NC(NC(=O)c2ccccc2C)C(Cl)(Cl)Cl)c(C)c1 (configuration not stated)		inconclusive [inhibitor, single point]
CSC1=NCCN1C(=O)Cc1ccc(-c2ccccc2)cc1	inactive: 26.4%	
Cc1ccc(C)c(S(=O)(=O)N2CCN(C(=O)C3CCN(C(=O)c4ccc(F)cc4)CC3)CC2)c1		inconclusive [inhibitor, partial curve, poor fit]
CCCCCC(=O)NC(CC(=O)OC)c1ccc2c(c1)OCO2 (configuration not stated)		inconclusive [inhibitor, single point]
Cc1nc(-c2cccc(NC(=O)c3cccs3)c2)cs1		inconclusive [inhibitor, full curve, poor fit]
O=C(c1ccc(-c2ccccc2Cl)o1)N1CCC1	inactive: 76.8%	
CC(C)Cc1cc(C(=O)Nc2ccc3c(c2)OCO3)no1	inactive: 200%	
CCC(C)(C)NC(=O)c1ccc(Sc2nncn2C)c([N+](=O)[O-])c1	inactive: -11.6%	
C=CCN(c1ccccc1)S(=O)(=O)c1cccc(C(=O)NCC(c2cccs2)N2CCOCC2)c1 (configuration not stated)		active: 10.4 µM
COc1cccc(CNC(=O)c2cccc(S(=O)(=O)N3CCN(C)CC3)c2)c1	inactive: -6.59%	
COc1ccc(C2(CNC(=O)/C=C/c3ccco3)CCCC2)cc1OC		active: 6.57 µM
COc1ccc(-c2c(C#N)sc(C(N)=O)c2-c2ccc(OC)cc2)cc1		inconclusive [inhibitor, full curve, poor fit]
N#CCC(=O)Nc1ccc(C(=O)NCCc2c[nH]c3ccccc23)cc1		active: 13.1 µM
O=C(CCc1ccccc1Cl)NC1CCCN(c2ccc(C(F)(F)F)cn2)C1 (configuration not stated)		inconclusive [inhibitor, single point]
COCCN(C(=O)COC(=O)c1c(-c2ccccc2)noc1C)c1c(N)n(Cc2ccccc2)c(=O)[nH]c1=O		inconclusive [inhibitor, single point]
COc1ccc(C)cc1N(CC(=O)N/N=C/c1ccccc1C(=O)O)S(=O)(=O)c1ccccc1		inconclusive [inhibitor, partial curve, poor fit]
CC1=CC(C)(C)N2C(=O)C3(NCCc4c3[nH]c3ccccc43)c3cc(C)cc1c32 (configuration not stated)		inconclusive [inhibitor, partial curve]
COC(=O)C1=C(C)NC(c2c(O)ccc3ccccc23)C(C(=O)OC)=C1C (configuration not stated)		inconclusive [inhibitor, single point]
CCOc1ccccc1C(=O)N(Cc1sccc1C)C1CCS(=O)(=O)C1 (configuration not stated)		inconclusive [inhibitor, partial curve]
CCCn1c(NCc2cccc(OC)c2OC)nc2ccccc21		inconclusive [inhibitor, single point]
Cc1cccc(-n2nnnc2SCC(=O)Nc2ccc(N3CCN(C)CC3)cc2)c1		inconclusive [inhibitor, single point]
